According to the supplement of paper PMC8728848:
The other results are listed elsewhere or left out.

Key:
Experiment in all cases: glycan array binding signal (z-score within array); higher = stronger binding
Details in all cases: glycan notation: IUPAC condensed, linker removed
Gal(b1-2)Gal = target: Gal(b1-2)Gal
How it was run: (§1)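 Arrays were curated from the Consortium for Functional Glycomics database, 3228 in total, and kept only where the protein sequence was available. Binding is expressed as a within-array Z-score. This score was averaged across arrays of the same protein sequence at different concentrations or buffers and across linkers, and negative values can be read as non-binding.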

Gal(b1-3)Gal = target: Gal(b1-3)Gal
How it was run: as §1

Gal(b1-3)Gal(b1-4)GlcNAc = target: Gal(b1-3)Gal(b1-4)GlcNAc
How it was run: as §1

Gal(b1-3)GalNAc = target: Gal(b1-3)GalNAc
How it was run: as §1

[1] = target: Gal(b1-3)GalNAc(a1-3)[Fuc(a1-2)]Gal(b1-4)Glc
How it was run: as §1

[2] = target: Gal(b1-3)GalNAc(a1-3)[Fuc(a1-2)]Gal(b1-4)GlcNAc
How it was run: as §1

Gal(b1-3)GalNAc(b1-3)Gal = target: Gal(b1-3)GalNAc(b1-3)Gal
How it was run: as §1

[3] = target: Gal(b1-3)GalNAc(b1-3)Gal(a1-4)Gal(b1-4)Glc
How it was run: as §1

[4] = target: Gal(b1-3)GalNAc(b1-4)Gal(b1-4)Glc
How it was run: as §1

[5] = target: Gal(b1-3)GalNAc(b1-4)[Neu5Ac(a2-3)]Gal(b1-4)Glc
How it was run: as §1

Gal(b1-3)GlcNAc = target: Gal(b1-3)GlcNAc
How it was run: as §1

[6] = target: Gal(b1-3)GlcNAc(a1-3)Gal(b1-4)GlcNAc
How it was run: as §1

[7] = target: Gal(b1-3)GlcNAc(a1-6)Gal(b1-4)GlcNAc
How it was run: as §1

Gal(b1-3)GlcNAc(b1-2)Man = target: Gal(b1-3)GlcNAc(b1-2)Man
How it was run: as §1

[8] = target: Gal(b1-3)GlcNAc(b1-2)Man(a1-3)[Gal(b1-3)GlcNAc(b1-2)Man(a1-6)]Man(b1-4)GlcNAc(b1-4)GlcNAc
How it was run: as §1

[9] = target: Gal(b1-3)GlcNAc(b1-2)Man(a1-3)[Gal(b1-3)GlcNAc(b1-2)Man(a1-6)]Man(b1-4)GlcNAc(b1-4)[Fuc(a1-6)]GlcNAc
How it was run: as §1

[10] = target: Gal(b1-3)GlcNAc(b1-2)Man(a1-3)[GlcNAc(b1-4)][Gal(b1-3)GlcNAc(b1-2)Man(a1-6)]Man(b1-4)GlcNAc(b1-4)GlcNAc
How it was run: as §1

[11] = target: Gal(b1-3)GlcNAc(b1-2)[Gal(b1-3)GlcNAc(b1-6)]Man(a1-6)[Gal(b1-3)GlcNAc(b1-2)Man(a1-3)]Man(b1-4)GlcNAc(b1-4)GlcNAc
How it was run: as §1

[12] = target: Gal(b1-3)GlcNAc(b1-3)Gal(b1-3)GlcNAc
How it was run: as §1

[13] = target: Gal(b1-3)GlcNAc(b1-3)Gal(b1-4)Glc
How it was run: as §1

[14] = target: Gal(b1-3)GlcNAc(b1-3)Gal(b1-4)GlcNAc
How it was run: as §1

[15] = target: Gal(b1-3)GlcNAc(b1-3)Gal(b1-4)GlcNAc(b1-2)Man(a1-3)[Gal(b1-3)GlcNAc(b1-3)Gal(b1-4)GlcNAc(b1-2)Man(a1-6)]Man(b1-4)GlcNAc(b1-4)GlcNAc
How it was run: as §1

[16] = target: Gal(b1-3)GlcNAc(b1-3)Gal(b1-4)GlcNAc(b1-2)[Gal(b1-3)GlcNAc(b1-3)Gal(b1-4)GlcNAc(b1-6)]Man(a1-6)[Gal(b1-3)GlcNAc(b1-3)Gal(b1-4)GlcNAc(b1-2)Man(a1-3)]Man(b1-4)GlcNAc(b1-4)[Fuc(a1-6)]GlcNAc
How it was run: as §1

[17] = target: Gal(b1-3)GlcNAc(b1-3)Gal(b1-4)GlcNAc(b1-3)Gal(b1-4)GlcNAc(b1-2)[Gal(b1-3)GlcNAc(b1-3)Gal(b1-4)GlcNAc(b1-3)Gal(b1-4)GlcNAc(b1-6)]Man(a1-6)[Gal(b1-3)GlcNAc(b1-3)Gal(b1-4)GlcNAc(b1-3)Gal(b1-4)GlcNAc(b1-2)Man(a1-3)]Man(b1-4)GlcNAc(b1-4)[Fuc(a1-6)]GlcNAc
How it was run: as §1

[18] = target: Gal(b1-3)GlcNAc(b1-3)Gal(b1-4)GlcNAc(b1-6)[Gal(b1-3)GlcNAc(b1-3)]Gal(b1-4)Glc
How it was run: as §1

[19] = target: Gal(b1-3)GlcNAc(b1-3)Gal(b1-4)[Fuc(a1-3)]GlcNAc
How it was run: as §1

[20] = target: Gal(b1-3)GlcNAc(b1-3)Gal(b1-4)[Fuc(a1-3)]GlcNAc(b1-6)[Gal(b1-3)GlcNAc(b1-3)]Gal(b1-4)Glc
How it was run: as §1

[21] = target: Gal(b1-3)GlcNAc(b1-3)GalNAc
How it was run: as §1

[22] = target: Gal(b1-3)GlcNAc(b1-6)Gal(b1-4)GlcNAc
How it was run: as §1

[23] = target: Gal(b1-3)GlcNAc(b1-6)GalNAc
How it was run: as §1

[24] = target: Gal(b1-3)GlcNAc(b1-6)[Gal(b1-3)]GalNAc
How it was run: as §1

Gal(b1-3)GlcNAc6S = target: Gal(b1-3)GlcNAc6S
How it was run: as §1

[25] = target: Gal(b1-3)[Fuc(a1-4)]GlcNAc
How it was run: as §1

[26] = target: Gal(b1-3)[Fuc(a1-4)]GlcNAc(b1-2)Man
How it was run: as §1

[27] = target: Gal(b1-3)[Fuc(a1-4)]GlcNAc(b1-2)Man(a1-3)[Gal(b1-3)[Fuc(a1-4)]GlcNAc(b1-2)Man(a1-6)]Man(b1-4)GlcNAc(b1-4)[Fuc(a1-6)]GlcNAc
How it was run: as §1

[28] = target: Gal(b1-3)[Fuc(a1-4)]GlcNAc(b1-3)Gal(b1-3)[Fuc(a1-4)]GlcNAc
How it was run: as §1

[29] = target: Gal(b1-3)[Fuc(a1-4)]GlcNAc(b1-3)Gal(b1-4)[Fuc(a1-3)]GlcNAc
How it was run: as §1

[30] = target: Gal(b1-3)[Fuc(a1-4)]GlcNAc(b1-6)GalNAc
How it was run: as §1

[31] = target: Gal(b1-3)[GlcNAc(b1-6)]GalNAc
How it was run: as §1

[32] = target: Gal(b1-3)[Neu5Ac(a2-6)]GalNAc
How it was run: as §1

[33] = target: Gal(b1-3)[Neu5Ac(a2-6)]GlcNAc(b1-4)Gal(b1-4)Glc
How it was run: as §1

[34] = target: Gal(b1-3)[Neu5Ac(b2-6)]GalNAc
How it was run: as §1

Gal(b1-4)Gal = target: Gal(b1-4)Gal
How it was run: as §1

[35] = target: Gal(b1-4)GalNAc(a1-3)[Fuc(a1-2)]Gal(b1-4)GlcNAc
How it was run: as §1

[36] = target: Gal(b1-4)GalNAc(b1-3)[Fuc(a1-2)]Gal(b1-4)GlcNAc
How it was run: as §1

B1: EULS2 M4 (Oryza sativa) (protein)
chain: MVYCRANPNYAMTARNGAVVLAPANPKDEYQHWIKDMRWSTSIKDEEGYPAFALVNKATGQAIKHSLGQSHPVRLVPYNPEVMDESVLWTESRDVGNGFRCIRMVNNIYLNFDAFHGDKYHGGVRDGTDIVLWKWCEGDSLRWKIQPYYILEQKLISEEDLNSAVDHHHHHH
glycan array binding signal (z-score) (Gal(b1-2)Gal): 1.56
glycan array binding signal (z-score) (Gal(b1-3)Gal): -0.452
glycan array binding signal (z-score) (Gal(b1-3)Gal(b1-4)GlcNAc): -0.554
glycan array binding signal (z-score) (Gal(b1-3)GalNAc): -0.7
glycan array binding signal (z-score) [1]: -0.225
glycan array binding signal (z-score) [2]: -0.49
glycan array binding signal (z-score) (Gal(b1-3)GalNAc(b1-3)Gal): -0.661
glycan array binding signal (z-score) [3]: -0.214
glycan array binding signal (z-score) [4]: -0.428
glycan array binding signal (z-score) [5]: -0.574
glycan array binding signal (z-score) (Gal(b1-3)GlcNAc): -0.319
glycan array binding signal (z-score) [6]: -0.21
glycan array binding signal (z-score) [7]: -0.357
glycan array binding signal (z-score) (Gal(b1-3)GlcNAc(b1-2)Man): -0.517
glycan array binding signal (z-score) [8]: -0.259
glycan array binding signal (z-score) [9]: -0.366
glycan array binding signal (z-score) [10]: 4.91
glycan array binding signal (z-score) [11]: 0.796
glycan array binding signal (z-score) [12]: -0.473
glycan array binding signal (z-score) [13]: -0.491
glycan array binding signal (z-score) [14]: -0.058
glycan array binding signal (z-score) [15]: 0.233
glycan array binding signal (z-score) [16]: -0.445
glycan array binding signal (z-score) [17]: -0.088
glycan array binding signal (z-score) [18]: -0.04
glycan array binding signal (z-score) [19]: 1.53
glycan array binding signal (z-score) [20]: -0.657
glycan array binding signal (z-score) [21]: -0.474
glycan array binding signal (z-score) [22]: 2.36
glycan array binding signal (z-score) [23]: -0.558
glycan array binding signal (z-score) [24]: -0.504
glycan array binding signal (z-score) (Gal(b1-3)GlcNAc6S): -0.943
glycan array binding signal (z-score) [25]: 0.94
glycan array binding signal (z-score) [26]: -0.061
glycan array binding signal (z-score) [27]: 0.081
glycan array binding signal (z-score) [28]: 0.373
glycan array binding signal (z-score) [29]: 0.555
glycan array binding signal (z-score) [30]: -0.614
glycan array binding signal (z-score) [31]: -0.511
glycan array binding signal (z-score) [32]: -0.516
glycan array binding signal (z-score) [33]: -0.235
glycan array binding signal (z-score) [34]: -0.453
glycan array binding signal (z-score) (Gal(b1-4)Gal): -0.47
glycan array binding signal (z-score) [35]: 1.49
glycan array binding signal (z-score) [36]: 0.086
